{
  "source": "the BET-seq Pho4 binding data (Le et al. 2018)",
  "note": "The list shows a part of the results. These are noisy estimates, calculated here from bound and input reads.",
  "data": [
    {"molecular_target": "T1, Pho4 (S. cerevisiae) (UniProt P07270)", "T1 sequence": "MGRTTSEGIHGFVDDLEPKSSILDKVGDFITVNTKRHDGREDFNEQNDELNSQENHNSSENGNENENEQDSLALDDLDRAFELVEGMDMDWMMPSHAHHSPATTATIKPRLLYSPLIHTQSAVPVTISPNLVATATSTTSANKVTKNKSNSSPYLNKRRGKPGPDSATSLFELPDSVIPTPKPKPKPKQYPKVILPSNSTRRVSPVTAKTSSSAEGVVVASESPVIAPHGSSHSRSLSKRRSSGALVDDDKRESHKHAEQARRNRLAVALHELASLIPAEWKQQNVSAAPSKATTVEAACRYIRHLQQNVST", "test": "relative binding free energy (BET-seq); higher = weaker binding", "conditions": "reference: library average", "units": {"relative binding free energy": "kcal/mol"}, "values": [
      {"sequence": "CGCTTCACGTGGGGAT", "relative binding free energy": 0.11},
      {"sequence": "TCTTACACGTGGGTGT", "relative binding free energy": -0.02},
      {"sequence": "TTATGCACGTGAATGG", "relative binding free energy": 0.3},
      {"sequence": "TTAGCCACGTGTGATT", "relative binding free energy": 0.02},
      {"sequence": "TTACACACGTGTGGGA", "relative binding free energy": 0.02},
      {"sequence": "CGGGGCACGTGGTAGG", "relative binding free energy": -0.13},
      {"sequence": "CGACTCACGTGGTGTG", "relative binding free energy": 0.03},
      {"sequence": "TCAATCACGTGGGAGG", "relative binding free energy": 0.1},
      {"sequence": "CAGTACACGTGTTGGG", "relative binding free energy": 0.08},
      {"sequence": "CTGTGCACGTGATGGT", "relative binding free energy": 0.08},
      {"sequence": "AGAGTCACGTGGTCAT", "relative binding free energy": 0.06},
      {"sequence": "TGGTGCACGTGTGGCA", "relative binding free energy": 0.03},
      {"sequence": "TAACACACGTGTGGGG", "relative binding free energy": -0.06},
      {"sequence": "GGAGCCACGTGCGGTG", "relative binding free energy": -0.11},
      {"sequence": "CGGGTCACGTGTCTGC", "relative binding free energy": 0.29},
      {"sequence": "GGAAGCACGTGGTATG", "relative binding free energy": -0.07},
      {"sequence": "TACAGCACGTGGGGGC", "relative binding free energy": -0.3},
      {"sequence": "ATTTCCACGTGATTGT", "relative binding free energy": 0.04},
      {"sequence": "GTGGCCACGTGAGAAG", "relative binding free energy": 0.27},
      {"sequence": "TCCTTCACGTGGTTTG", "relative binding free energy": 0.18},
      {"sequence": "ATGGTCACGTGTTTAG", "relative binding free energy": 0.16},
      {"sequence": "GGATGCACGTGTAGTG", "relative binding free energy": -0.01},
      {"sequence": "AGTAACACGTGTAGTA", "relative binding free energy": -0.07},
      {"sequence": "TGAGGCACGTGACTGA", "relative binding free energy": -0.02},
      {"sequence": "TGCTTCACGTGATTCG", "relative binding free energy": 0.28},
      {"sequence": "GTGGCCACGTGGTATT", "relative binding free energy": -0.21},
      {"sequence": "CGGGACACGTGGTGTA", "relative binding free energy": 0.03},
      {"sequence": "AGATGCACGTGATAAG", "relative binding free energy": 0.26},
      {"sequence": "GGTATCACGTGTATGG", "relative binding free energy": 0.22},
      {"sequence": "GGCTTCACGTGAGGCA", "relative binding free energy": 0.56},
      {"sequence": "TCAGGCACGTGTATGG", "relative binding free energy": -0.09},
      {"sequence": "TTAAACACGTGGTAGG", "relative binding free energy": -0.09},
      {"sequence": "AGTATCACGTGGGGCG", "relative binding free energy": 0.05},
      {"sequence": "CGGCGCACGTGGTTGT", "relative binding free energy": -0.29},
      {"sequence": "TAGGGCACGTGCAGTA", "relative binding free energy": -0.16},
      {"sequence": "GTGGCCACGTGGGGTA", "relative binding free energy": -0.21},
      {"sequence": "TATGGCACGTGTTACG", "relative binding free energy": -0.25},
      {"sequence": "TTGTACACGTGCAAGT", "relative binding free energy": 0.2},
      {"sequence": "AGTAGCACGTGGAGAT", "relative binding free energy": -0.08},
      {"sequence": "TTGTTCACGTGGTGCA", "relative binding free energy": 0.11},
      {"sequence": "ACGGGCACGTGGTGTA", "relative binding free energy": -0.22},
      {"sequence": "ATTGTCACGTGGGAAA", "relative binding free energy": -0.1},
      {"sequence": "ATGCGCACGTGTGGTT", "relative binding free energy": -0.12},
      {"sequence": "GCTTACACGTGTTGTC", "relative binding free energy": 0.37},
      {"sequence": "GTCTTCACGTGTTTAT", "relative binding free energy": 0.41},
      {"sequence": "AGGAACACGTGGAAGG", "relative binding free energy": 0.16},
      {"sequence": "TGGAGCACGTGGCGGG", "relative binding free energy": -0.21},
      {"sequence": "TGGGCCACGTGAGTGC", "relative binding free energy": 0.05},
      {"sequence": "TAGCTCACGTGGGTGG", "relative binding free energy": 0.05},
      {"sequence": "GATAGCACGTGGCGGT", "relative binding free energy": -0.26},
      {"sequence": "TTAATCACGTGAAATG", "relative binding free energy": 0.36},
      {"sequence": "GTGGACACGTGTCAGG", "relative binding free energy": -0.11},
      {"sequence": "TAATTCACGTGTTCGA", "relative binding free energy": 0.3},
      {"sequence": "TGGGGCACGTGTGCCG", "relative binding free energy": -0.08},
      {"sequence": "TCGTTCACGTGATGAG", "relative binding free energy": 0.32},
      {"sequence": "ATTGCCACGTGTAGAG", "relative binding free energy": 0.01},
      {"sequence": "GGGTGCACGTGTGCCG", "relative binding free energy": -0.03},
      {"sequence": "ACGTGCACGTGGTATG", "relative binding free energy": -0.24},
      {"sequence": "GTCATCACGTGGGCTG", "relative binding free energy": 0.11},
      {"sequence": "ACTGACACGTGTGGTG", "relative binding free energy": -0.02},
      {"sequence": "TAGAGCACGTGGTTAA", "relative binding free energy": -0.16},
      {"sequence": "TTGGGCACGTGATGCT", "relative binding free energy": -0.13},
      {"sequence": "TAAGGCACGTGTGTAT", "relative binding free energy": -0.13},
      {"sequence": "TCAGGCACGTGGGTAT", "relative binding free energy": -0.09},
      {"sequence": "TACTACACGTGTTTTG", "relative binding free energy": 0.01},
      {"sequence": "CGGATCACGTGTGTGG", "relative binding free energy": 0.2},
      {"sequence": "TGTTACACGTGATGTA", "relative binding free energy": 0.26},
      {"sequence": "GGTCGCACGTGTTGAA", "relative binding free energy": -0.03},
      {"sequence": "TTTGCCACGTGGCTGT", "relative binding free energy": -0.2},
      {"sequence": "TTTCGCACGTGAGGAA", "relative binding free energy": 0.33},
      {"sequence": "TGAGGCACGTGTTCTA", "relative binding free energy": -0.18},
      {"sequence": "AGGAGCACGTGTTAAT", "relative binding free energy": 0.01},
      {"sequence": "GAATTCACGTGTATTG", "relative binding free energy": 0.19},
      {"sequence": "ATAGTCACGTGATAAG", "relative binding free energy": 0.17},
      {"sequence": "TTCTACACGTGTAGTT", "relative binding free energy": 0.32},
      {"sequence": "TGGTACACGTGATGGT", "relative binding free energy": 0.18},
      {"sequence": "AGTGGCACGTGGTCTT", "relative binding free energy": -0.15},
      {"sequence": "GGTTGCACGTGGTACG", "relative binding free energy": 0.01},
      {"sequence": "GAATTCACGTGTATTT", "relative binding free energy": 0.39},
      {"sequence": "GGGTTCACGTGGTTCA", "relative binding free energy": 0.34},
      {"sequence": "TTTTACACGTGCTTGT", "relative binding free energy": 0.05},
      {"sequence": "CGTAGCACGTGTCTGG", "relative binding free energy": -0.04},
      {"sequence": "TGTATCACGTGAGGGA", "relative binding free energy": 0.2},
      {"sequence": "GTAAGCACGTGATGAT", "relative binding free energy": 0.19},
      {"sequence": "TTAAGCACGTGGTTAA", "relative binding free energy": -0.23},
      {"sequence": "GTGTTCACGTGTGCCA", "relative binding free energy": 0.44},
      {"sequence": "CTTAGCACGTGTATGT", "relative binding free energy": -0.03},
      {"sequence": "TGTTACACGTGGACGT", "relative binding free energy": 0.14},
      {"sequence": "GATGGCACGTGTTAGA", "relative binding free energy": -0.01},
      {"sequence": "GTAGACACGTGGTTAC", "relative binding free energy": 0.2},
      {"sequence": "CTTATCACGTGGTGGC", "relative binding free energy": 0.12},
      {"sequence": "AGGGGCACGTGCCATG", "relative binding free energy": -0.13},
      {"sequence": "CGAGTCACGTGGTTGA", "relative binding free energy": 0.07},
      {"sequence": "AGTTTCACGTGGGGGC", "relative binding free energy": 0.31},
      {"sequence": "GATCGCACGTGGGATG", "relative binding free energy": -0.01},
      {"sequence": "AAGTTCACGTGTGATG", "relative binding free energy": 0.38},
      {"sequence": "TCATGCACGTGCTGTT", "relative binding free energy": -0.04},
      {"sequence": "TGGTACACGTGTAAGT", "relative binding free energy": 0.25},
      {"sequence": "GTGAGCACGTGAAAGT", "relative binding free energy": 0.27},
      {"sequence": "AAGCGCACGTGTAGGT", "relative binding free energy": -0.18},
      {"sequence": "TGCTGCACGTGAGTGG", "relative binding free energy": 0.09},
      {"sequence": "AAGTGCACGTGTCGGG", "relative binding free energy": -0.04},
      {"sequence": "AAGAGCACGTGGGATT", "relative binding free energy": -0.09},
      {"sequence": "TTGGGCACGTGCTAAT", "relative binding free energy": -0.09},
      {"sequence": "TCTATCACGTGGGGGA", "relative binding free energy": 0},
      {"sequence": "GGACTCACGTGATGGA", "relative binding free energy": 0.46},
      {"sequence": "TGGCTCACGTGCTGTG", "relative binding free energy": 0.18},
      {"sequence": "AATGACACGTGTGAGT", "relative binding free energy": 0.05},
      {"sequence": "ATGCGCACGTGACGGG", "relative binding free energy": -0.05},
      {"sequence": "ATAAGCACGTGTTGAG", "relative binding free energy": -0.03},
      {"sequence": "TGAAGCACGTGGCGAT", "relative binding free energy": 0},
      {"sequence": "GATGTCACGTGGGACG", "relative binding free energy": 0.19},
      {"sequence": "TTTTTCACGTGCTGGA", "relative binding free energy": 0.32},
      {"sequence": "ATTTACACGTGGAAGG", "relative binding free energy": 0.12},
      {"sequence": "CGAGTCACGTGGCAGG", "relative binding free energy": 0.05}
    ]}
  ]
}
